About 31,000 (8.9%) of roughly 350,000 compounds were called active. Inconclusive means that the source gave no clear call. Such entries were picked first, then a sample of the others. Calls follow the shape of the dose curve; as a rule, active = well fitted inhibition curve with a large enough effect; inconclusive = small, poorly fitted or top-dose-only effect; inactive = no such curve, though single readings can be large or run the other way. Potencies of inconclusive entries are doubtful fits and often do not repeat.
These compounds were tested against Histone-lysine N-methyltransferase EHMT2 (Homo sapiens) (UniProt Q96KQ7) (assay: qHTS Assay for Inhibitors of Histone Lysine Methyltransferase G9a). Conditions: G9a H3K9 monomethylation, AlphaScreen, 2 h; activity, negative = inhibition: at 59 µM (top of the series) unless noted.
Chain of UniProt Q96KQ7 (Q96KQ7 whole entry, looked up): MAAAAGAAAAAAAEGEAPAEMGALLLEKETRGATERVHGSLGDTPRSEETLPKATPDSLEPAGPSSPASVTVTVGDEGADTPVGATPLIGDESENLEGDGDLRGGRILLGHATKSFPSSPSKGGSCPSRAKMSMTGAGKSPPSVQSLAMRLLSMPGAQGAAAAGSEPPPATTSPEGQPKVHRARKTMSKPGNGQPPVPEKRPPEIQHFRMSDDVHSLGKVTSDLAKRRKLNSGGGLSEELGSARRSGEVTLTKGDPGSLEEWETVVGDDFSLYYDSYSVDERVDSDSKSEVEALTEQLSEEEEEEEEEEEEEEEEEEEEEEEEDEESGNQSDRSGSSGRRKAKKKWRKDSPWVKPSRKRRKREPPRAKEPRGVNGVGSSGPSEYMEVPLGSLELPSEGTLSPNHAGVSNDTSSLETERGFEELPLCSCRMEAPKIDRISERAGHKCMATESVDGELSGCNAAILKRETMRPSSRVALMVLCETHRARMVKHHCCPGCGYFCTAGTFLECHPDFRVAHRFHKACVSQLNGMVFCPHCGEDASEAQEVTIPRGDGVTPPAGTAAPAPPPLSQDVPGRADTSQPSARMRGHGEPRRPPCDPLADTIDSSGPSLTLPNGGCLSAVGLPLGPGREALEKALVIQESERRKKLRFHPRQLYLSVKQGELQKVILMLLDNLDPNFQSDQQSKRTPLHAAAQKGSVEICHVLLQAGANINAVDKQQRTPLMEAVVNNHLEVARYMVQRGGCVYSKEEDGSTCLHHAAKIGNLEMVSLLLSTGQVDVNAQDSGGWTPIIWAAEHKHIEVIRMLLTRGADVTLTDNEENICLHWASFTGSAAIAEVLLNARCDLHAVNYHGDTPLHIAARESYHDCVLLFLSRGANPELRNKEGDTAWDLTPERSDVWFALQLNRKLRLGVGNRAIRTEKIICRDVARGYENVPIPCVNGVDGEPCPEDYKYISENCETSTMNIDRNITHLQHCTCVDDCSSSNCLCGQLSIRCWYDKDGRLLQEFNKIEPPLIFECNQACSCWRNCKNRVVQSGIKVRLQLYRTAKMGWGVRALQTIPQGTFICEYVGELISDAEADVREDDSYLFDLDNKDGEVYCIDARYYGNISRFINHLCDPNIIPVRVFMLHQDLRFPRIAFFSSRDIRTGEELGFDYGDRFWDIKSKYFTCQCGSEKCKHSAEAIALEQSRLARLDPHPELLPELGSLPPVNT
Procedure, shortened: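 AlphaScreen read-out: biotin-H3K9 peptide (500 nM) methylation by 20 nM enzyme with 20 uM SAM, 2 h at room temperature after 15 min compound preincubation; anti-monomethyl H3K9 antibody plus donor/acceptor beads, 10 min dark.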
% is scaled to controls: 0 for no effect and ±100 for the full control effect; potency is read from the fitted curve at half-maximal effect; tags tell the direction and shape of the fitted curve.
Also: nearly all actives have a fitted effect of over 75% in size.

Row | SMILES | activity, negative = inhibition | Potency
1 | CCc1ccc(N/C(=N/c2nc(C)cc(C)n2)NC(C)=O)cc1 | inactive: 13.5% [at 102 µM] | –
2 | Cn1c(SCC(=O)NCc2ccco2)nnc1-c1ccccc1 | – | inconclusive: 25.1 µM [inhibitor, single point]
3 | S=C(Nc1ccccc1)Nc1nc2ccccc2n1CCOc1ccc(Br)cc1 | – | inconclusive: 12.6 µM [inhibitor, single point]
4 | Cc1cc(C2C(C#N)=C(N)SC(N)=C2C#N)c(C)s1 | – | active: 1.26 µM
5 | CCNC(=O)COC(=O)CCNC(=O)c1cccc(C)c1 | – | inconclusive: 31.6 µM [inhibitor, partial curve, poor fit]
6 | Cc1ccc(NC(=O)C[n+]2cc(-c3ccc(C)cc3)n3c2CCC3)cc1 | inactive: -48.8% [at 102 µM] | –
7 | O=c1[nH]c(CN2CCN(c3ccccc3)CC2)nc2scc(-c3ccccc3)c12 | – | inconclusive: 22.4 µM [inhibitor, single point]
8 | CCOC(=O)c1c(C)oc2nc(C)nc(NCCc3ccc(C)cc3)c12 | inactive: -27.5% | –
9 | COc1ccc(C(=O)/C=C/c2cccs2)c(OC(=O)c2cccc([N+](=O)[O-])c2)c1 | inconclusive: -76.3% [inhibitor] | –
10 | Cc1cc(C)nc(SCC(=O)c2ccc3c(c2)OCCO3)n1 | inactive: -14.1% [at 12.7 µM] | –
11 | Cc1ccc(N2CC(C(=O)NCc3ccc4c(c3)OCO4)CC2=O)cc1C (stereo not drawn) | – | inconclusive: 63.1 µM [inhibitor, partial curve, poor fit]
12 | CCS(=O)(=O)n1nc(-c2ccccc2)nc1SC | inactive: -8.61% | –
13 | CCOc1ccc(NC(=O)CSc2oc(-c3ccco3)nc2S(=O)(=O)c2ccccc2)cc1 | inactive: 0.107% | –
14 | CCC1=Nc2cc(C(=O)NCCCN3CCN(C)CC3)ccc2Sc2ccccc21 | – | inconclusive: 89.1 µM [inhibitor, single point]
15 | Cc1cccc(C(=O)Nc2ccc(N3CC=C(c4ccccc4C)CC3)c(C(=O)O)c2)c1 | – | inconclusive: 39.8 µM [inhibitor, single point]
16 | CC1=C(C(=O)N2CCCCC2)C(c2ccc(Cl)cc2)n2c(nc3ccccc32)N1 (stereo not drawn) | inactive: 3.9% | –
17 | COc1ccc(-c2cn3cc(C)ccc3n2)cc1F | inactive: 2.67% [at 12.7 µM] | –
18 | CC(=O)c1cc2c(cc1NC(=O)CSc1nc3ccccc3[nH]1)OCO2 | – | inconclusive: 89.1 µM [inhibitor, single point]
19 | CC(=O)C1=C(O)C(=O)N(c2ccc(O)cc2)C1c1ccccc1F (stereo not drawn) | – | active: 79.4 µM
20 | COc1ccc(NS(=O)(=O)c2ccc3c(c2)CCC(=O)N3)cc1O | inactive: -41.7% [at 102 µM] | –
21 | CCn1c(C)nc2cc(C(=O)NNC(=O)Nc3ccc(Cl)cc3)ccc21 | – | inconclusive: 79.4 µM [inhibitor, single point]
22 | CCOC(=O)c1cccc(NC(=O)CSc2ncc3c(n2)-c2ccc(Cl)cc2N(Cc2ccccc2)S3(=O)=O)c1 | – | inconclusive: 39.8 µM [inhibitor, partial curve, poor fit]
23 | CNC(=O)Nc1ccc2nc(C)oc2c1 | – | inconclusive: 35.5 µM [inhibitor, single point]
24 | Cc1cccc(N2CC(C(=O)Nc3nnc(SCC(=O)NCC4CCCO4)s3)CC2=O)c1 (stereo not drawn) | – | active: 11.2 µM
25 | Cc1ccc(CSc2nnc([C@@H]3CCCN3C(=O)OC(C)(C)C)o2)cc1 | inactive: 28.1% [at 102 µM] | –

Row | SMILES | activity, negative = inhibition | Potency
26 | c1ccc(-c2nnc(-c3ccncc3)nc2-c2ccccc2)cc1 | inconclusive: -67.3% [inhibitor] | –
27 | Cc1cc(NC(=S)N(CCCN2CCN(C)CC2)Cc2ccco2)ccc1Cl | – | active: 31.6 µM
28 | CCCN1C(=O)c2[nH]nc(-c3cc(Cl)c(C)cc3O)c2C1c1ccc(O)c(OC)c1 (stereo not drawn) | – | inconclusive: 50.1 µM [inhibitor, partial curve, poor fit]
29 | CCN(c1ccccc1)S(=O)(=O)c1ccc(N2CCN(c3ccccc3O)CC2)nc1 | – | inconclusive: 14.1 µM [inhibitor, partial curve, poor fit]
30 | OC1CCCN(CC(O)COC(c2ccccc2)c2ccccc2)C1 (stereo not drawn) | – | active: 17.8 µM
31 | O=C(CSc1ncccc1C(=O)O)Nc1ccc2c(c1)OCCO2 | – | inconclusive: 89.1 µM [inhibitor, single point]
32 | CCN(CC)C(=O)Cn1nnc(-c2ccc(C)o2)n1 | – | active: 3.98 µM
33 | Cc1c(C)n(Cc2ccccc2)c2ccc(C(=O)N3CCN(c4ccccc4)CC3)cc12 | – | inconclusive: 25.1 µM [inhibitor, single point]
34 | CN1Cc2sccc2C(c2ccc(O)c(O)c2)C1 (stereo not drawn) | – | active: 8.44 µM
35 | Cc1csc(=O)n1CCC(=O)OCC(=O)c1c(N)n(CC(C)C)c(=O)n(C)c1=O | – | inconclusive: 79.4 µM [inhibitor, partial curve, poor fit]
36 | Cn1cccc1C1NC(=O)c2c(sc3c2CCC(C(C)(C)C)C3)N1 (stereo not drawn) | – | inconclusive: 6.31 µM [inhibitor, single point]
37 | O=C(CSc1nc2ccsc2c(=O)n1Cc1ccc(C(=O)O)cc1)NCc1ccco1 | – | inconclusive: 89.1 µM [inhibitor, single point]
38 | Clc1ccc(CSc2nnc(CNc3cccc(Cl)c3)o2)cc1 | inactive: 120% | –
39 | O=C(Cn1c(=O)[nH]n(-c2ccccc2)c1=O)N1CCCc2ccccc21 | – | inconclusive: 2.24 µM [inhibitor, partial curve, poor fit]
40 | COCCn1c(=O)c(CCc2ccccc2)nc2cnc(OC)nc21 | inactive: -6.56% [at 12.7 µM] | –
41 | Cc1cc(C(C)(C)C)cc(S(=O)(=O)Nc2ccc(O)c(C(=O)O)c2)c1C | – | inconclusive: 1.78 µM [inhibitor, partial curve, poor fit]
42 | COC(=O)[C@]1(C)N[C@H](c2ccc(-c3ccc(Cl)c(Cl)c3)c(OC)c2)[C@@H]2C(=O)N(C)C(=O)[C@@H]21 | – | inconclusive: 7.08 µM [inhibitor, single point]
43 | CN(C)S(=O)(=O)c1cccc(NC(=O)CSc2cccc3cccnc23)c1 | – | active: 56.2 µM
44 | CCOC(=O)c1cnc(SCCc2ccccc2)nc1N | inactive: 110% [at 102 µM] | –
45 | CCOc1ccccc1NC(=O)CCS(=O)(=O)c1ccc(Br)cc1 | – | active: 12.6 µM
46 | COc1ccccc1-n1cnnc1SCC(=O)N1CCN(S(=O)(=O)c2ccccc2)CC1 | – | inconclusive: 79.4 µM [inhibitor, partial curve, poor fit]
47 | CCCCCCCC[n+]1cccc(C(=O)N(CC)CC)c1 | inactive: -46.2% | –
48 | CC(=O)N1CCN(c2ccc(Nc3nc(C)nc4c3oc3ccccc34)cc2)CC1 | – | inconclusive: 28.2 µM [inhibitor, single point]
49 | COc1ccc(S(=O)(=O)NCCSC(C)(C)C)c(Cl)c1Cl | – | inconclusive: 0.891 µM [inhibitor, partial curve, poor fit]
50 | NC(=O)C1CCN(Cc2ccc(OCc3ccccc3)cc2)CC1 | – | active: 10 µM

Row | SMILES | activity, negative = inhibition | Potency
51 | COC(=O)CSc1nc(N)nc(C)c1Br | – | inconclusive: 79.4 µM [inhibitor, single point]
52 | O=C(Nc1ccc(N2CCOCC2)cc1)c1ccc([N+](=O)[O-])o1 | – | inconclusive: 7.94 µM [inhibitor, full curve, poor fit]
53 | Cc1cccc(OC(=O)c2snnc2C)c1 | – | inconclusive: 10 µM [inhibitor, partial curve, poor fit]
54 | CN(C(=O)C1CCCCC1)C1(C)CCS(=O)(=O)C1 (stereo not drawn) | inactive: -29.5% [at 102 µM] | –
55 | COc1ccc(CNc2nc(NCc3ccc(OC)c(OC)c3)n(C(=O)c3cccs3)n2)cc1OC | – | inconclusive: 44.7 µM [inhibitor, partial curve]
56 | COc1ccc(N(Cc2cc3ccccc3[nH]c2=O)S(=O)(=O)c2ccc(C)cc2)cc1 | inactive: 12.2% [at 102 µM] | –
57 | Cc1cccc(NC(=O)C(=O)NCCCN2CCOCC2)c1 | – | inconclusive: 44.7 µM [inhibitor, partial curve, poor fit]
58 | CCC(C(=O)NNC(=O)c1cnccn1)c1ccccc1 (stereo not drawn) | – | inconclusive: 1.58 µM [inhibitor, full curve, poor fit]
59 | COc1ccc(Cc2nnc(SCC(=O)NC3(C#N)CCCCC3)n2N)cc1 | – | inconclusive: 3.98 µM [inhibitor, full curve, poor fit]
60 | COc1ccc(-c2csc(NC(=O)C3CC(=O)N(c4ccc5c(c4)OCCO5)C3)n2)cc1 (stereo not drawn) | – | inconclusive: 28.2 µM [inhibitor, full curve]
61 | CC(=O)Nc1nc(-c2cccs2)cs1 | inconclusive: -70.8% [inhibitor] | –
62 | CCOC(=O)c1cn2nc(SCc3ccccc3)nc2nc1C | inactive: 64.8% [at 102 µM] | –
63 | O=C(Nc1nc2ccccc2n1CCOc1ccccc1)c1ccco1 | inactive: 64.1% | –
64 | CCOc1ccccc1NC(=O)CSc1ncc2c(n1)-c1ccccc1N(CC)S2(=O)=O | inactive: -2.34% | –
65 | COc1ccc(CNCc2ccc(C(=O)O)s2)cc1 | inactive: 8.62% | –
66 | CCOc1ccc(C(=O)Nc2cc(Cl)ccc2-n2cncn2)cc1OC | – | active: 15.8 µM
67 | CC(=O)Nc1ccc(S(=O)(=O)NCC(=O)NNC(=O)COc2ccccc2Cl)cc1 | – | inconclusive: 89.1 µM [inhibitor, partial curve, poor fit]
68 | C=Cc1ccc(Cn2c(C(=O)O)c(CNCCc3ccco3)c3ccc(C)cc32)cc1 | – | inconclusive: 22.4 µM [inhibitor, single point]
69 | Cc1ccccc1C(=O)Nc1ccc(N2CCCCCC2)cc1 | – | inconclusive: 2.24 µM [inhibitor, partial curve, poor fit]
70 | CCCCOC(=O)CSc1ncnc2sc3c(c12)CCC(C)C3 (stereo not drawn) | inactive: 76.4% | –
71 | S=C(NCCc1ccccn1)Nc1ccc(Cl)cc1Cl | inactive: -3.02% [at 102 µM] | –
72 | CCN1CCN(CC(O)COc2ccc(C)c(C)c2)CC1 (stereo not drawn) | inactive: 20.7% | –
73 | C=CCSc1nnc(NC(=O)CSc2nc(CCC)cc(=O)[nH]2)s1 | – | inconclusive: 63.1 µM [inhibitor, partial curve, poor fit]
